Results from PubChem BioAssay AID1645882 (National Center for Advancing Translational Sciences (NCATS), 2021).
Where “and” joins values, the source holds several entries; their conditions need not be identical. Equal entries are not always repeated. About 120 (0.75%) of roughly 16,000 compounds were called active. Roughly 4% stayed inconclusive and do not appear here. Calls follow the shape of the dose curve; as a rule, active = well fitted inhibition curve with a large enough effect; inconclusive = small, poorly fitted or top-dose-only effect; inactive = no such curve, though single readings can be large or run the other way. This is one part of the list. Where a structure was tested more than once in an assay, its records may differ in their call.
Also: nearly all actives have a fitted effect of over 75% in size.
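For activity change, negative = inhibition in this document: plate controls were DMSO for no effect and ATA control for full effect.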
Potency is read from the fitted curve at half-maximal effect.

The compounds below were run against Rap guanine nucleotide exchange factor 3 (Homo sapiens) (UniProt O95398) (assay: Validation qHTS for antagonist of cAMP-regulated guanine nucleotide exchange factor 3 (EPAC1)). Settings: EPAC1 Rap1B-BODIPY-GDP exchange, fluorescence; series mostly up to 150 µM; activity change, negative = inhibition: at the top concentration.
UniProt O95398, sequence (O95398 whole entry, looked up): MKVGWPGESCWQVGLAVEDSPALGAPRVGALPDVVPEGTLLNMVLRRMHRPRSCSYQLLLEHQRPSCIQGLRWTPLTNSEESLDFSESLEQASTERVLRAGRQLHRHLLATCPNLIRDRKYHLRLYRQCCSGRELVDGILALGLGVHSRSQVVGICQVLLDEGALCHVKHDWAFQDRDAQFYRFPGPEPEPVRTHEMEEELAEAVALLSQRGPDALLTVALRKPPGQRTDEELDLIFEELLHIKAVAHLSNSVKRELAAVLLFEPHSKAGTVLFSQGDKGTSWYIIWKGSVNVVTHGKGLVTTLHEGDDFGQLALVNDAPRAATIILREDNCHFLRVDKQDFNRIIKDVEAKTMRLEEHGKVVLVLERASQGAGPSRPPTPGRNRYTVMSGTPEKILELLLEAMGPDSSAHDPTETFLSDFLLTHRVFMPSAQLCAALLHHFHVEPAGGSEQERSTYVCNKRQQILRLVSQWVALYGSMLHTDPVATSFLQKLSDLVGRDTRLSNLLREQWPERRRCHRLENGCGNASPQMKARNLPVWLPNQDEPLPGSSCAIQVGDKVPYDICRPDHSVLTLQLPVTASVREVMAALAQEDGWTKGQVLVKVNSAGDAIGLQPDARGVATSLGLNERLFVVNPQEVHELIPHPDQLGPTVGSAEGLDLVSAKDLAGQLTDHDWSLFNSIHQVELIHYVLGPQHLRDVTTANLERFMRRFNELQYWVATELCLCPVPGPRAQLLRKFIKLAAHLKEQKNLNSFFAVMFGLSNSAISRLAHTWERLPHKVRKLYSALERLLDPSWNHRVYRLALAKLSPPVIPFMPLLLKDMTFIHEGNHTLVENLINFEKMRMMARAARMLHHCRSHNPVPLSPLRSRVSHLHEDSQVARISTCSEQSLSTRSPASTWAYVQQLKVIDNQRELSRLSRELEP
In short: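 Nucleotide exchange followed as fluorescence loss when BODIPY-GDP leaves Rap1B (480 nm excitation, 540 nm emission), read at 5 min intervals over 30 min. Reaction: 100 nM EPAC1, 250 nM RAP1B-BODIPY-GDP, 50 uM GDP; ATA and DMSO define normalization.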
For `O=c1c(-c2cccs2)nc2cnc(Oc3ccccc3)nc2n1C1CC1`, the “activity change, negative = inhibition” value was inactive: 6.28%. `CN(Cc1ccco1)c1ccnc(-c2cccc(NS(C)(=O)=O)c2)n1` was tested, and the “activity change, negative = inhibition” value was inactive: 16.1%. `CCOC(=O)C1CCCCN1C(=O)c1cnn(-c2nccc(-c3cc(C)sc3C)n2)c1C1CC1` (centres undefined) was tested, and the “activity change, negative = inhibition” value was inactive: -24.2%. In the case of `CN1C2CCCC1CC(NC(=O)c1nn(C)c3ccccc13)C2` (centres undefined), the “activity change, negative = inhibition” value is reported as inactive: 7.95% [at 75.8 µM]. With `COc1cccc(NC(=O)/C=C\c2ccc(Cl)cc2)c1` the “activity change, negative = inhibition” value was inactive: 10.9%. With `C=C1C(=C/C=C2\CCC[C@]3(C)[C@@H]([C@H](C)CCCC(C)(C)O)CC[C@@H]23)C[C@@H](O)C[C@@H]1O` the “activity change, negative = inhibition” value was inactive: -2.48%. In the case of `C#C[C@@]1(O)CCC2C3CCC4=CC(=O)CCC4C3CC[C@@]21CC` (some centres undefined), the “activity change, negative = inhibition” value is reported as inactive: 4.59%. With `C=C(c1ccc2ccccc2n1)c1cccs1` the “activity change, negative = inhibition” value was inactive: 15.3%. In the case of `COc1ccc(CN2CC[C@H]3C=CC[C@@H](C(=O)NC4CCCCC4)[C@H]3C2=O)cc1OC`, the “activity change, negative = inhibition” value is reported as inactive: -9.2%. For `COCCNc1ncnc2ccc(-c3ccccc3C(F)(F)F)cc12`, the “activity change, negative = inhibition” value was inactive: 17%. With `Cc1ccc2nc(SCC(=O)N3CCC4(CC3)CC4C(=O)Nc3ccc(F)c(F)c3)[nH]c2c1` (centres undefined) the “activity change, negative = inhibition” value was inactive: -18.4%. In the case of `CCCCCCCC/C=C\CCCCCCCC(=O)OC[C@@H](O)COP(=O)(O)O`, the activity change, negative = inhibition is reported as inactive: 15.7% [at 15.3 µM]. In the case of `COc1ccc(/C=C/C(=O)OCCC(C)C)cc1`, the “activity change, negative = inhibition” value is reported as inactive: -6.01%. For `C=C1CC[C@H](O)CC1=C/C=C1\CCC[C@]2(C)[C@@H]([C@H](C)CCCC(C)(C)O)CC[C@@H]12`, the “activity change, negative = inhibition” value was inactive: -10.6%. With `O=C1CCN(Cc2ccccc2)CCN1[C@H](CSc1ccccc1)Cc1ccccc1` the “activity change, negative = inhibition” value was inactive: 2.4%. For `COCC(=O)N1CCC2(CCCN(c3ccc(-c4ccccc4)cc3)C2)CC1`, the “activity change, negative = inhibition” value was inactive: -6.43%. For `COc1ccc(-c2nc3cnc(N(C)C)nc3n(C)c2=O)cc1`, the “activity change, negative = inhibition” value was inactive: 17%. `CCn1c(-c2ccccc2F)nc2cc(C(=O)N3CCCC(CO)C3)cc(NC(C)=O)c21` (centres undefined) was tested, and the “activity change, negative = inhibition” value was inactive: 9.2%. With `COc1cc(-c2cc(C)c3cccc(OC)c3n2)cc2c1OCCN(C(=O)Cn1nc(C)cc1C)C2` the “activity change, negative = inhibition” value was inactive: -11%. `Oc1c(I)cc(I)c2cccnc12` was tested, and the “activity change, negative = inhibition” value was inactive: 24.1%. For `CC1CCC(=O)N(CCSc2ccccc2)CC1` (centres undefined), the “activity change, negative = inhibition” value was inactive: -5.14%. For `CCC(=O)O`, the “activity change, negative = inhibition” value was inactive: 18.8%. With `C=NCc1cc2c(OC[C@@H](O)CNC(C)(C)C)cccc2[nH]1` the “activity change, negative = inhibition” value was inactive: 12.1%. In the case of `CCN(CC)CCNC(=O)c1cc(S(C)(=O)=O)ccc1OC`, the activity change, negative = inhibition is reported as “inactive”. `CN(C)C(=O)c1ccc(-c2nc(NCc3cccnc3)c3ccccc3n2)cc1` was tested, and the “activity change, negative = inhibition” value was inactive: 0.843%. `COc1ccc(C(=O)N2CCC[C@@]3(CCN(Cc4ccccc4OC)C3)C2)cc1` was tested, and the “activity change, negative = inhibition” value was inactive: 4.5%. For `O=C(CCCN1CC=C(n2c(=O)[nH]c3ccccc32)CC1)c1ccc(F)cc1`, the activity change, negative = inhibition was “inactive”. For `O=c1cnc2cnc(Nc3ccccc3)nc2n1C1CC1`, the “activity change, negative = inhibition” value was inactive: 4.84%. `CC(=O)NCCNc1nc(-c2cccc(NS(C)(=O)=O)c2)nc2ccccc12` was tested, and the “activity change, negative = inhibition” value was inactive: 11.1%. With `C=CC(C1=CC(=O)C=CC1=O)c1ccc(O)cc1` (centres undefined) the “activity change, negative = inhibition” value was inactive: -4.59%. For `Cc1c(C(=O)NCC2(N3CCCCC3)CCCC2)cnn1-c1nccc(-c2ccccc2F)n1`, the “activity change, negative = inhibition” value was inactive: 5.61%. For `CCCCCC(C)N` (centres undefined), the “activity change, negative = inhibition” value was inactive: 16.8%. In the case of `CC(C)CN1CC2(CCN(C(=O)c3csnn3)CC2)C1`, the “activity change, negative = inhibition” value is reported as inactive: 3.84%. For `COc1ccc2cc(CCC(C)=O)ccc2c1`, the activity change, negative = inhibition was “inactive”. For `O=C(O)CCC(=O)OC[C@@H](NC(=O)C(Cl)Cl)[C@H](O)c1ccc([N+](=O)[O-])cc1`, the “activity change, negative = inhibition” value was inactive: -1.66%. With `C=C[C@H](N)CCC(=O)O` the “activity change, negative = inhibition” value was inactive: 4.32%. With `Cc1cccc(/C=C/c2ccccc2)n1` the activity change, negative = inhibition was “inactive”. `Cc1c(C(=O)N2CCCC2)sc2ncnc(NCCN(C)C)c12` was tested, and the “activity change, negative = inhibition” value was inactive: 10.3%. For `CCn1cc(C(=O)O)c(=O)c2ccc(C)nc21`, the activity change, negative = inhibition was “inactive”. With `C=C(NC(=O)C(=C)NC(=O)c1csc(C2=N[C@@H]3c4csc(n4)[C@H]4NC(=O)c5csc(n5)[C@H]([C@](C)(O)[C@@H](C)O)NC(=O)[C@H]5CSC(=N5)C(=CC)NC(=O)C([C@@H](C)O)NC(=O)c5csc(n5)[C@]3(CC2)NC(=O)[C@H](C)NC(=O)C(=C)NC(=O)[C@H](C)NC(=O)C([C@@H](C)CC)NC2C=Cc3c([C@H](C)O)cc(nc3C2O)C(=O)O[C@@H]4C)n1)C(N)=O` (some centres undefined) the “activity change, negative = inhibition” value was inactive: 8.03% [at 75.8 µM]. With `Cc1cc(C)cc(C(=O)N(C)[C@H](Cc2ccc(-c3ccccc3)cc2)C(=O)N[C@@H](Cc2c[nH]c3ccccc23)C(=O)O)c1` the Potency was active: 112 µM. In the case of `CC(=O)Nc1ccc(C(=O)N2CCCC(n3cc(C(=O)NCC(C)C)nn3)C2)cc1` (centres undefined), the “activity change, negative = inhibition” value is reported as inactive: 2.69%. In the case of `COC(=O)[C@]1(C)CCC[C@]2(C)c3ccc(C(C)C)cc3C(=O)CC12` (some centres undefined), the “activity change, negative = inhibition” value is reported as inactive: 5.81%. For `O=c1[nH]c2ccccc2c2ccccc12`, the activity change, negative = inhibition was “inactive”. For `C#CCN(C)Cc1ccccc1`, the activity change, negative = inhibition was “inactive”. `CC(=O)OC1C(=O)[C@@]2(C)C(O)CC3OC[C@]3(OC(C)=O)C2C(OC(=O)c2ccccc2)[C@]2(O)CC(OC(=O)C(O)C(NC(=O)c3ccccc3)c3ccccc3)C(C)=C1C2(C)C` (some centres undefined) was tested, and the “activity change, negative = inhibition” value was inactive: 1.21%. For `COc1c2ccccc2nc2occc12`, the “activity change, negative = inhibition” value was inactive: 7.29%. In the case of `CC1OCC23CC[C@@]4(C)CCC(C)(C)C[C@H]4[C@]2(C)CCC12C3CC[C@@]1(C)C2C(=O)CC(=O)[C@@H]1C` (some centres undefined), the “activity change, negative = inhibition” value is reported as inactive: 3.91%. For `O=c1c(O)c(-c2cc(O)c(O)c(O)c2)oc2cc(O)cc(O)c12`, the Potency was active: 35.5 µM and active: 39.8 µM and inactive.
